Results as given in US20200299400A1 (published 2020).

B1: 3h56-269-CT (Fc fusion)
chain: EVQLLESGGGLVQPGGSLRLSCAASGFTFRDYEMWWVRQAPGKGLERVSAINPQGTRTYYADSVKGRFTISRDNSKNTLYLQMNSLRAEDTAVYYCAKLPFRFSDRGQGTLVTVSSAST[left out - human IgG1 Fc with changes]
notes: The rows marked (UCOE-CHO) are the same protein expressed and purified from UCOE-CHO cells
B2: 3h56-269-IgG1-D265A (Fc fusion)
chain: EVQLLESGGGLVQPGGSLRLSCAASGFTFRDYEMWWVRQAPGKGLERVSAINPQGTRTYYADSVKGRFTISRDNSKNTLYLQMNSLRAEDTAVYYCAKLPFRFSDRGQGTLVTVSSAST[left out - human IgG1 Fc with D265A (EU numbers)]
B3: 3h56-269-IgG4.1 (Fc fusion)
chain: EVQLLESGGGLVQPGGSLRLSCAASGFTFRDYEMWWVRQAPGKGLERVSAINPQGTRTYYADSVKGRFTISRDNSKNTLYLQMNSLRAEDTAVYYCAKLPFRFSDRGQGTLVTVSSAST[left out - human IgG4 Fc with S228P (EU numbers)]
notes: also called BMS-986090

Each binder was assayed against T1, hCD40-Fc (human, UniProt P25942 part only) (assay: SPR; dAb-Fc analyte on immobilized hCD40-Fc; avidity-influenced KDapparent).
T1 construct: Immobilized on the sensor chip; construct not described; not shown: Fc part of hCD40-Fc not described

Sequence of hCD40-Fc (P25942 21-193): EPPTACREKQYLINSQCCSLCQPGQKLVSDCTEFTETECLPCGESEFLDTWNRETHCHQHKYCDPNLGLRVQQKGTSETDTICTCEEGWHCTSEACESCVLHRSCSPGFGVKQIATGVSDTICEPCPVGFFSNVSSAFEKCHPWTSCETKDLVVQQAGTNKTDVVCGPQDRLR

Kd	Binder
< 1 nM	B1
< 1 nM	B2
< 1 nM	B3
